These results are taken from the supplement of paper PMC12067093, “Discovery and optimisation of a covalent ligand for TRIM25 and its application to targeted protein ubiquitination” (Chemical Science, 2025).

The full data set covers some 21,000 targets. This sample favours those with the largest changes.

Compound in this test: Cc1cc(ccc1-c1ccccc1)C(=O)N1CCCN(CC1)C(=O)CCl [compound 10]
Nature of the test: probe-labelled cysteine peptide fold change vs DMSO (competition) (log2 fold change); higher = less target engagement (more negative = stronger competition). The following applies: THP-1, incubation time: 4 h.
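Also: competitive profiling in live THP-1 cells: cysteine peptides tagged with an iodoacetamide desthiobiotin (IA-DTB) probe, intensity after compound treatment relative to DMSO-treated cells.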

Chain of UniProt Q5MNZ6 (Q5MNZ6 whole entry, looked up): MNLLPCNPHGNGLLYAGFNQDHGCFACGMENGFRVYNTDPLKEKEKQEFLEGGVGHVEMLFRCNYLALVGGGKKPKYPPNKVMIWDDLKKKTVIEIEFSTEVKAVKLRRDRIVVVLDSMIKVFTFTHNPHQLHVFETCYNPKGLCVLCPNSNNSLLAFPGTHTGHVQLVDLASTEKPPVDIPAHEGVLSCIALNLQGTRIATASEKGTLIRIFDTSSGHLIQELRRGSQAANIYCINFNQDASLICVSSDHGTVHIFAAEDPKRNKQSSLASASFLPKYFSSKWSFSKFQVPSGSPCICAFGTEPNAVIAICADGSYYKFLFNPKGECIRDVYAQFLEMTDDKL

In the case of “WDR45B_Q5MNZ6_63_CNYLALVGGGK (UniProt Q5MNZ6)”, the “probe-labelled cysteine peptide fold change” value is, setting by setting: (10 µM) -0.33; (50 µM) -2.
